For 27 variants, nonsense suppression results are on record in the RNAGym collection of RNA variant scans (doi:10.1101/gad.245936.114).

B1: tRNA (parent)
chain: CUCUCGGUAGCCAAGUUGGUUUAAGGCGCAAGACUUUAAUUUAUCACUACGAAAUCUUGAGAUCGGGCGUUCGACUCGCCCCCGGGAGAUUUUUUCCUCGAGCAA

Variants at the floor of the assay are shown more often than the library holds them. A value given as a limit tells only on which side of the number the result lay.

In this series the parent is B1. Nature of the series: nonsense suppression (GFP-seq) (ratio to wild type); higher = more function; SUP4oc tRNA, yeast GFP reporter sort-seq. The method, boiled down:
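Yeast were grown in raffinose/galactose medium with 80 mg/L adenine, each strain bearing a genome-integrated ochre-suppressor tRNA variant from a ~3% random-mutation library, a galactose-driven GFP ochre reporter, and RFP. After sorting into GFP/RFP bins, every bin was sequenced on an Illumina platform at phred ≥30. The GFPSEQ value, a measure of nonsense suppression, is the weighted bin median GFP/RFP relative to the unmutated parent tRNA, using each variant's estimated cell share per bin as the weight. Only variants with ≥100 reads and ≥30 cells were included.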
CUCUCGGUAGCCAAGUUGGUUUAAGGCGCAACACUUUAAUUUAUCACUACGAAAUCUUGAGAUCCGGCGUUCGACUCGCCCCCGGGAGAUUUUUUCCUCGAGCAA [G32C G65C]: the nonsense suppression was not above 0.026. The result for GUCUCGGUAGCCAAGUUGGUUUAAGGCGCAAGACUUUAAUUUAUCACUACGAAAAAUCGAGAUCGGGCGUUCGACUCGCCCCCGGGAGAUUUUUUCCUCGAGCAA [C1G U55A C56A U58C] reads not above 0.026; that for CUCUCGGUAGCCUAGUUGGUUUUAGGCGCAAGCCUUUAAUUUAUCACUACGAAAUCUUGAGAUCGGGCGUUCGACUCGCCCCCGGGAGAUUUUUUCCUCGAGCAA [A13U A23U A33C], not above 0.026. CUCUCGGUAGGCAAGUUGGUUUAAGGCGCAAGACUUUAAUUUAUCACUACGAAAUCUUGGGAUCGGGCGUUCGACUCGCCCCCGGGAGAUUUUUUCCUCGAGCAA [C11G A60G]: the nonsense suppression was not above 0.026. The result for CUCUCGGUAGCCAAGUUGGUUUAAGGCGCAAGACUUUAAUUUAUCACUACGAAAUCUUGAGAUCGGGCGUUGGACUCGCCCCCGCGAGAUUUUUUCCUCGAGCAA [C72G G85C] reads not above 0.026; that for CUCUCGGUAGCCAAGUUGGUUUAAGGCGCAAGACUUUAAUUUAUCACUACGAAAGCUUGACAUCGGGCGUUCGACUCGCCCCCGGGACAUUUUUUCCUCGAGCAA [U55G G61C G88C], not above 0.026. Take CUCUCCGUAGCCAAGUUGGUUUAAGGCGCAAGACGUUAAUUUAUCACUACGAAAUCUUGAGAUCGGGCGUUCGACUCGCCCCCGGGAGAUUUUUUCCUCGAGCAA [G6C U35G]: the nonsense suppression was not above 0.026. In the case of CUCUCGGUAGCCAAGUUGGGCUAAGGCGCAAGACUUUAAUUUAUCACUACGAAAUCUUGAGAUAGGGGGUUCGACUCGCCCCCGGGAGAUUUUUUCCUCGAGCAA [U20G U21C C64A C68G], the nonsense suppression was not above 0.026. The result for CUCUCGGUAGCCAAGUUGGUUUAAGGCGCAAGACUUUAAUUUAUCACUACGAAAUCUUGAGAUCGGACGUUCCACUCGCCCCCGGGAGAUUUUUUCCUCGAGCAA [G67A G73C] reads not above 0.026. In the case of CUCUCGGUAGCCAAGUUGGUUUAAGGCGUAAGUCUUUAAUUUAUCACUACGAAAUCUUGAGAUCGGGCGUUCGACUCGCCCCCGAAAGAUUUUUUCCUCGAGCAA [C29U A33U G85A G86A], the nonsense suppression was not above 0.026. The result for CUCUCGGUAGCCAAGUUGGUUUAAGGCGUAAGACUUUAAUUUAUCACUACGAAAUCUUGAGAUCGGGCGUUCGUAUCGCCCCCGGGAGAUUUUUUCCUCGAGCAA [C29U A74U C75A] reads not above 0.026; that for CUCUCGGUAGCCAAGUUGGUUUAGGGCGCAAGACUUUAAUUUAUCACUACGAAAUCUUGAAAUCGGGCGUUCGACUCGCCCCCGGGAGAUUUUUUCCUCGAGCAA [A24G G61A], not above 0.026. For CUCUCGGUAGCCACGUUGGUUUAAGGCGCAAGACUUUAAUUUAUCACUACGAAAUCUUGAGAUCGGGCGUUCGACUCGACCCCGGGAGAUUUUUUCCUCGAGCAA [A14C C79A], the nonsense suppression was not above 0.026.

In the case of CUCUCGGUAGCCAAGAUGGUUUAAGGCGCAAGACUUUAAUUUAUCACUACGAAAUCUUGAGAUCCGGCGUUCCACUCGCCCCCGGGAGAUUUUUUCCUCGAGCAA [U16A G65C G73C], the nonsense suppression was not above 0.026. Then CUCUCGGUAGCCAAGUUGGUUUAAGGCGCAAGACUUUAAUUUAUCACUACGAAAUUUUGAGAUCAGGCGUUCGACUCGCCCCCGGGCGAUUUUUUCCUCGAGCAA [C56U G65A A87C], with not above 0.026; and CUCUCGGAAGCCAAGUUGGUUUAAGGCGCAAGACUUUAAUUUAUCACUACGAAAUCUUGAGACCCGGCGUUCGACGCGCCCCCGGGAGAUUUUUUCCUCGAGCAA [U8A U63C G65C U76G], with not above 0.026; and CUCUCGGUGGCCAAGUUGGUUUAAGGCGCAAGACUUUAAUUUAUCACUACGAAAUCUUGAGAUCGCGCGUUCGACUCGCCGCCGGGAGAUUUUUUCCUCGAGCAA [A9G G66C C81G], with not above 0.026. Turning to CUCUCGGUAGCCAAGUUGGUUGACGGCGCAAGACUUUAAUUUAUCACUACGAAAUCUUGAGAUCGGGCGUUCGACUCGCCCCCGGGAGAUUUUUUCCUCGAGCAA [U22G A24C], the nonsense suppression is 0.817. In the case of CUCUCGGUAGCCAAGUUGGUUUAGGGCGCUAGACUUUAAUUUAUCACUACGAAAUCUUGAGAUCGGGCGGUAGACUCGCCCCCGGGAGAUUUUUUCCUCGAGCAA [A24G A30U U70G C72A], the nonsense suppression is not above 0.026.

CUAUCGGUAGCCAAGUUGGUUUAAGGCGCAAGACUUUAAUUUAUCACUACGAAAUCUUGAGAGCGGGCGUUCGACUCGCCCCCGGGAGAUUUUUUCCUCGAGCAA [C3A U63G]: the nonsense suppression is not above 0.026.

As to CUAUAGGUAGCCAAGUUGGUUUAAGGCGCAAGACUUUAAUUUAUCACUACGAAAUCUUGAGAACGGGCGUUCGACUCGCCCCCGGGAGAUUUUUUCCUCGAGCAA [C3A C5A U63A], the nonsense suppression is not above 0.026.

Regarding CUCUCCGUCGACAGGUUGGUUGAAGGCGCAAUACUUUAAUUUAUCACUACGAAAUCUUGAGAUCGGGCGUUCGACUCGCCCCCAGGAGAUUUUUUCCUCGAGCAA [G6C A9C C11A A14G U22G G32U G84A], the nonsense suppression was not above 0.026. The result for CUCUCGGUAGCCAAGUUGGUUUAAGGCGCGAGACUUUAAUUUAUCACUACGAAAUCUUGAGAUCGGGCGUUCGACUCGCCCCCGGCAGAUUUUUUCCUCGAGCAA [A30G G86C] reads not above 0.026; that for CUCUCCGUAGCCAAGUUAGUUUAAGGCGUAAGACUUUAAUUUAUCACUACGAAAUCUUGAGGUCGGGCGUUCGACUCGCCCCCGGGAGAUUUUUUCCUCGAGCAA [G6C G18A C29U A62G], not above 0.026. CUCUCGGUAGCCAAGUUGGUUGGAGGCGCAAGACUUUAAUUUAUCACUACGAAAUCUUGAGAUCGGGCGUUCGACUCGCCCCCGGGAGAUUUUUUCCUCGAGCAA [U22G A23G]: the nonsense suppression is not above 0.026. For the variant CUCUCGGUAGCCAAGUUGGUUUAAGGCGCAAGACUUUAAUUUAUCACUACGAAAUCUUGAGAUCGGGCGUUCGACCCGCCCCCGGGAGCUUUUUUCCUCGAGCAA [U76C A89C], the nonsense suppression was not above 0.026. The result for GUCUCGGUAGCCAAGUUGGUUUAAGGCGCAAGACUUUAAUUUAUCACUACGAAAUCUUGAGAUCGCGCGUUCGACUCGCCCCCGGGAGAUUUUUUCCUCGAGCAA [C1G G66C] reads not above 0.026.
